The campaign covered roughly 330,000 compounds. About 1,700 (0.52%) were called active. The inconclusive results got no clear call from the source; some entries with a clear call stand among them for comparison. Calls come from the whole dose curve; as a rule, active = well fitted inhibition curve with a large enough effect; inconclusive = small, poorly fitted or top-dose-only effect; inactive = no such curve, though single readings can be large or run the other way. A potency beside an inconclusive call is a rough fit, not a confirmed value.
What follows are compounds tested against Beta-lactamase (Escherichia coli (strain K12)) (UniProt P00811) (assay: qHTS Inhibitors of AmpC Beta-Lactamase (assay without detergent)). Details: AmpC nitrocefin hydrolysis, absorbance 480 nm, 0.0001% Triton; activity change, negative = inhibition: at 57.1 µM (top of the series) unless noted.
Chain of UniProt P00811 (P00811 whole entry, looked up): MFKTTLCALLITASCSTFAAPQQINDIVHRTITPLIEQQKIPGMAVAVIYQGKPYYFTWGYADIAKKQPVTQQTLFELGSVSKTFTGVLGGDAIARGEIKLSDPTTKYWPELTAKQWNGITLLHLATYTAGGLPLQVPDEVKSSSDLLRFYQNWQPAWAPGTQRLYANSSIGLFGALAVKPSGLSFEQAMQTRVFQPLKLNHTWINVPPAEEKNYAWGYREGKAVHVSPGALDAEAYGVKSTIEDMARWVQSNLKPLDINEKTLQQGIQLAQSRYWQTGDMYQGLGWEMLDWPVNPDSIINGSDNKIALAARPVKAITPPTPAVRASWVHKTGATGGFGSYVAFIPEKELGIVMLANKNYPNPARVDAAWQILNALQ
Procedure, shortened: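 20 mM phosphate pH 7.0 + 0.01% (detergent screen) or 0.0001% Triton X-100; 5.3 nM AmpC reagent; cpd preinc 15 min RT; nitrocefin (800 uM stock) to start; A480 q20 s × 4 min; Activity was normalised to no-enzyme and no-compound control wells.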
Note: nearly all actives have a fitted effect of over 20% in size.
Potency is the fitted concentration of half-maximal effect; tags give direction and shape of the fitted curve.
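Throughout, for activity change, negative = inhibition: plate controls were no compound for no effect and no enzyme for full effect.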

Which activity change, negative = inhibition does the source give for S=C(NCCc1ccc(Cl)cc1)NC1CC1 here?
Its activity change, negative = inhibition is inactive: -0.726% [at 2.29 µM].

Cn1nc(C(=O)Nc2nc(-c3ccccn3)cs2)c2ccccc2c1=O was tested. Which Potency did it give?
The Potency was “inactive”.

How did the Potency turn out when CS(=O)(=O)c1nc(S(=O)(=O)c2ccc(Cl)cc2)c(N2CCCCCC2)s1 was run?
The Potency was “inactive”.

O=C(Nc1cccc(-c2ccc(N3CCOCC3)nn2)c1)c1ccc([N+](=O)[O-])cc1 was tested. Which Potency did it give?
Its Potency is active: 31.6 µM.

How did the Potency turn out when Cc1cccc(NC(=S)NNc2cccc(Cl)c2)c1 was run?
The Potency was inconclusive: 10 µM [inhibitor, partial curve].

For Cc1cccc(/C=N/NC(=O)c2ccc(NC(=O)c3ccc(F)cc3)cc2)n1, which Potency is on record?
The Potency was active: 17.8 µM.

For O=C(OCC(=O)c1ccc(Cl)s1)c1cnccn1, which Potency is on record?
The Potency was inconclusive: 10 µM [inhibitor, partial curve, poor fit].

How did the Potency turn out when Cc1ccc(Cl)c(OCC(=O)Nc2ccc3c(c2)OCCO3)c1 was run?
Its Potency is inconclusive: 8.91 µM [inhibitor, single point].

For Cc1ccc(S(=O)(=O)N2CCN(C(=O)COC(=O)c3cnc(C)cn3)CC2)c(C)c1, which Potency is on record?
The Potency was inconclusive: 25.1 µM [inhibitor, single point].

Which Potency does the source give for O=C(CC12CC3CC(C1)CC(CC(=O)NC1=NCCS1)(C3)C2)NC1=NCCS1 here?
The Potency was inconclusive: 5.62 µM [inhibitor, single point].

Cc1cc(C(=O)CSc2n[nH]c(N)n2)c(C)n1-c1ccc(F)cc1 was tested. Which Potency did it give?
The Potency was “inactive”.

How did the Potency turn out when CCOc1ccc(S(=O)(=O)N2CCN(C(=S)NCC3CCCO3)CC2)cc1 (centres undefined) was run?
Its Potency is inconclusive: 39.8 µM [inhibitor, single point].

Which Potency does the source give for COC(=O)c1cc(NC(=O)c2cccc(C(F)(F)F)c2)c(=O)oc1C/C=N/OCc1cccc(Cl)c1Cl here?
Its Potency is active: 7.94 µM.

How did the Potency turn out when COc1ccc(Oc2nc(-c3ccccc3)ncc2S(=O)(=O)c2ccccc2)cc1 was run?
The Potency was inconclusive: 0.631 µM [inhibitor, partial curve, poor fit].

c1ccc(Cn2nnc3c(N4CCOCC4)ncnc32)cc1 was tested. Which Potency did it give?
The Potency was “inactive”.

With O=C(O)C1=CC(=C(c2ccc(O)c(C(=O)O)c2)c2ccc(O)c(C(=O)O)c2)C=CC1=O as the compound, how does the Potency read?
The Potency was active: 8.91 µM.

For O/C=c1\ccc2cccc3nc(C(F)(F)F)nc1c23, which Potency is on record?
Its Potency is active: 12.6 µM.

How did the Potency turn out when O=P(/C(=N/O)N1CCOCC1)(N1CCOCC1)N1CCOCC1 was run?
Its Potency is inconclusive: 6.31 µM [inhibitor, single point].

Which Potency does the source give for COc1ccc(C2CC(c3ccc(Br)cc3)=NN2C(=O)CSC2=NN3CCCC(=O)N=C3S2)cc1 (centres undefined) here?
The Potency was “inactive”.

COc1cc(NC(=S)NC(C)(C)C)c(OC)cc1Cl was tested. Which Potency did it give?
Its Potency is “inactive”.

With CCC(=O)c1cc(-c2nc3ccccc3n2C)n(C)c1 as the compound, how does the Potency read?
The Potency was inconclusive: 5.01 µM [inhibitor, single point].

Which Potency does the source give for O=C(OCC(=O)c1ccc([N+](=O)[O-])cc1)/C(=C/c1ccc(Cl)cc1)NC(=O)c1ccccc1 here?
The Potency was inconclusive: 35.5 µM [inhibitor, single point].

Which Potency does the source give for Cc1nnc(SCC(=O)N2CCc3ccccc32)s1 here?
Its Potency is inconclusive: 6.31 µM [inhibitor, single point].

How did the Potency turn out when COC(=O)c1sccc1NC(=O)Nc1cccc(C)c1 was run?
Its Potency is “inactive”.

With COc1ccc(OC)c(NC(=O)c2nnn(Cc3ccc(Br)cc3F)c2N)c1 as the compound, how does the Potency read?
Its Potency is active: 0.794 µM.

Which Potency does the source give for Cc1ccccc1-c1nc(CS(=O)(=O)CC(=O)N2CCc3ccccc3C2)c(C)o1 here?
Its Potency is active: 11.2 µM.

How did the Potency turn out when O=C(Nc1ccccc1)Nc1n[nH]c2nnc(-c3ccccc3)c(-c3ccccc3)c12 was run?
The Potency was active: 31.6 µM.

How did the Potency turn out when O=C(CN1C(=O)S/C(=C\c2ccccc2)C1=O)Nc1cc([N+](=O)[O-])ccc1O was run?
The Potency was inconclusive: 11.2 µM [inhibitor, partial curve].

How did the Potency turn out when CCc1cccc(CC)c1-n1c(SCC(=O)N2CCCc3ccccc32)nc(O)cc1=O was run?
The Potency was inconclusive: 7.94 µM [inhibitor, full curve, poor fit].

With CCOc1ccc(NC(=O)COc2coc(CN3CCc4ccccc4C3)cc2=O)cc1 as the compound, how does the Potency read?
Its Potency is “inactive”.

With O=C(/C=C\c1cn(-c2ccccc2)nc1-c1ccccc1)Nc1nccs1 as the compound, how does the Potency read?
The Potency was active: 11.2 µM.

How did the Potency turn out when O=C(NCc1ccc2c(c1)OCO2)C1CCCN(S(=O)(=O)c2cccc3cccnc23)C1 (centres undefined) was run?
The Potency was inconclusive: 0.501 µM [inhibitor, full curve, poor fit].

For O=C(c1ccc([N+](=O)[O-])o1)N1CCN(c2nc3ccc(F)cc3s2)CC1, which Potency is on record?
Its Potency is “inactive”.

Which Potency does the source give for COc1ccc(-c2sc3ccccc3c2/C=C/c2ccc(OC)c(OC)c2)cc1 here?
Its Potency is “inactive”.

Which Potency does the source give for COc1cc(N)c(Cl)cc1C(=O)OCC(=O)Nc1cccnc1Cl here?
The Potency was active: 35.5 µM.

Which Potency does the source give for CN(C)S(=O)(=O)c1cccc(NC(=S)Nc2cccc3cnccc23)c1 here?
Its Potency is “inactive”.

For CC(=NNC(=O)c1ccc(NS(=O)(=O)c2ccc(Br)cc2)cc1)c1cccnc1, which Potency is on record?
The Potency was inconclusive: 17.8 µM [inhibitor, partial curve].

Which Potency does the source give for CCOP(=O)(NC12CC3CC(CC(C3)C1)C2)NC12CC3CC(CC(C3)C1)C2 here?
The Potency was “inactive”.

How did the Potency turn out when COc1ccccc1NS(=O)(=O)c1cccc(C(=O)N/N=C/c2ccc(C)o2)c1 was run?
Its Potency is inconclusive: 20 µM [inhibitor, partial curve].

For O=C(CSc1nncc2ccccc12)N1CCOCC1, which Potency is on record?
The Potency was “inactive”.

Cc1ccc(S(=O)(=O)NCc2ccccc2)cc1C(=O)N(C)CC(=O)Nc1c(Cl)cccc1Cl was tested. Which Potency did it give?
Its Potency is inconclusive: 28.2 µM [inhibitor, single point].

CCCCCCc1c(O)c2ccccc2[nH]c1=O was tested. Which Potency did it give?
Its Potency is inconclusive: 3.55 µM [inhibitor, single point].

How did the Potency turn out when COc1ccc(OCC(=O)NNc2nc3ccccc3s2)cc1 was run?
The Potency was active: 10 µM.

Which Potency does the source give for CCCc1nc(SCC(=O)N2CCCc3ccccc32)c2c(=O)n(C)c(=O)n(C)c2n1 here?
Its Potency is active: 39.8 µM.

With O=C(C1CCCO1)N1CCN(S(=O)(=O)c2ccccc2)CC1 (centres undefined) as the compound, how does the Potency read?
The Potency was inconclusive: 0.141 µM [inhibitor, full curve, poor fit].

With CNC(=O)C(=O)NCCN1CCN(C(=O)c2ccc([N+](=O)[O-])cc2)CC1 as the compound, how does the Potency read?
The Potency was “inactive”.

Which Potency does the source give for Cc1ccc(C2c3c(-c4ccccc4O)n[nH]c3C(=O)N2Cc2ccncc2)cc1 (centres undefined) here?
The Potency was inconclusive: 5.01 µM [inhibitor, single point].

Cc1cc(O)c(C(=O)/C=C/c2ccccc2Br)c(=O)o1 was tested. Which Potency did it give?
Its Potency is active: 12.6 µM.

O=C(O)c1ccc2c(c1)ncn2C1CCCCC1 was tested. Which Potency did it give?
The Potency was inconclusive: 5.01 µM [inhibitor, single point].

For Cc1cc2oc(=O)cc(CSc3nc(N)cc(N)n3)c2cc1C(C)C, which Potency is on record?
Its Potency is active: 2.82 µM.

How did the Potency turn out when Cc1oc(-c2ccc(Cl)cc2)nc1CN1CCCC(C(=O)NCCCN2CCOCC2)C1 (centres undefined) was run?
The Potency was “inactive”.

How did the Potency turn out when Fc1ccc(C2=NNC(=NCc3ccccc3)SC2)cc1F was run?
Its Potency is active: 17.8 µM.

Cc1ccc(/C=C2\SC(=S)N(CCC(=O)NNC(=O)c3cccc(O)c3)C2=O)cc1 was tested. Which Potency did it give?
Its Potency is inconclusive: 22.4 µM [inhibitor, partial curve].

For CC(=O)c1ccc(OC(C)C)c(CSc2nc(O)cc(=O)[nH]2)c1, which Potency is on record?
The Potency was inconclusive: 7.94 µM [inhibitor, full curve, poor fit].

With CCOCCn1cnc2sc(C(=O)NCC(=O)OCC)c(C)c2c1=O as the compound, how does the Potency read?
Its Potency is “inactive”.

Cc1cc(C)c2nc(NNC(=O)c3ccc(S(=O)(=O)N4CCCC(C)C4)cc3)sc2c1 (centres undefined) was tested. Which Potency did it give?
The Potency was inconclusive: 3.55 µM [inhibitor, full curve, poor fit].

COc1cccc(-n2c(SCc3cc(=O)oc4cc(O)c(O)cc34)nc3ccccc3c2=O)c1 was tested. Which Potency did it give?
The Potency was inconclusive: 31.6 µM [inhibitor, partial curve].

With Nc1nnc(CC(=O)N/N=C/c2ccc(-c3ccc(Cl)cc3Cl)o2)s1 as the compound, how does the Potency read?
The Potency was inconclusive: 14.1 µM [inhibitor, partial curve].

How did the Potency turn out when COc1cccc(C(=O)Nc2nnc(S(=O)(=O)N3CCCCC3)s2)c1 was run?
The Potency was inconclusive: 10 µM [inhibitor, partial curve].

Which Potency does the source give for COc1cccc(CNC(=O)Cn2cc3c(n2)CCCC3)c1 here?
The Potency was inconclusive: 10 µM [inhibitor, full curve, poor fit].

Which Potency does the source give for CCOc1ccc2nc(SC3CC(=O)N(c4cccc(OC)c4)C3=O)sc2c1 (centres undefined) here?
Its Potency is active: 8.91 µM.

COc1ccccc1CNS(=O)(=O)c1ccc(-n2cnnn2)c(OC)c1 was tested. Which Potency did it give?
Its Potency is “inactive”.

How did the Potency turn out when C=CCN1C(=O)/C(=c2\sc3nc(=O)c(Cc4ccccc4)nn3c2=O)c2ccccc21 was run?
The Potency was inconclusive: 3.55 µM [inhibitor, full curve, poor fit].

Which Potency does the source give for COc1ccc(/C=C/C(=O)NC(=S)NNC(=O)[C@H]2C[C@@H]2c2ccccc2)cc1OC here?
Its Potency is active: 7.08 µM.

With Cc1cc(NC(=O)c2c(-c3c(F)cccc3Cl)noc2C)no1 as the compound, how does the Potency read?
Its Potency is “inactive”.

For Nc1cc(C(F)(F)F)ccc1Nc1ccccc1, which Potency is on record?
The Potency was inconclusive: 39.8 µM [inhibitor, single point].

How did the Potency turn out when O=C(N/N=C/c1c[nH]c2ccccc12)c1cc(Cl)ccc1O was run?
The Potency was active: 15.8 µM.

For N#Cc1ccc(Oc2ccc(/C=N/O)cn2)cc1, which Potency is on record?
The Potency was inconclusive: 3.98 µM [inhibitor, single point].

For COc1ccc(S(=O)(=O)n2ccc(C(C)Oc3ccc(-c4ccccc4)c(F)c3)n2)cc1 (centres undefined), which Potency is on record?
The Potency was active: 0.398 µM.

For O=C(COC(=O)c1cc[n+]([O-])cc1)Nc1ccc(Cl)cc1C(F)(F)F, which Potency is on record?
The Potency was inconclusive: 31.6 µM [inhibitor, single point].

With COc1ccc(NS(=O)(=O)c2cc(NC(=O)c3ccc(=O)[nH]c3)ccc2N2CCCC2)cc1 as the compound, how does the Potency read?
Its Potency is “inactive”.

How did the Potency turn out when CCOC(=O)/C(C#N)=C/c1ccc(OCC(=O)Nc2ccccc2)c(OC)c1 was run?
Its Potency is inconclusive: 6.31 µM [inhibitor, single point].

With CCCc1ccc2oc(C(=O)N(C)Cc3cnccn3)c(C)c2c1 as the compound, how does the Potency read?
Its Potency is “inactive”.

COc1cc(/C=C2\SC(N)=NC2=O)ccc1OCC(=O)Nc1ccc(C)cc1 was tested. Which Potency did it give?
Its Potency is active: 10 µM.

Reference: PubChem BioAssay AID485341 (National Center for Advancing Translational Sciences (NCATS), 2010)
